# Test results as given in PubChem BioAssay AID686978 (National Center for Advancing Translational Sciences (NCATS), 2013).
# Where “and” joins values, the source holds several entries; their conditions need not be identical. Equal entries are not always repeated. Hit rate of the full screen: of about 420,000 compounds, about 64,000 (15%) were called active. Inconclusive results, whose numbers are uncertain, are shown with a selection of clear calls. Calls come from the whole dose curve; as a rule, active = well fitted inhibition curve with a large enough effect; inconclusive = small, poorly fitted or top-dose-only effect; inactive = flat fitted curve, though single readings scatter. A potency beside an inconclusive call is a rough fit, not a confirmed value.
# Experiment: qHTS for Inhibitors of human tyrosyl-DNA phosphodiesterase 1 (TDP1): qHTS in cells in absence of CPT; note: nearly all actives have a fitted effect of over 55% in size
# Conditions: DT40 Tdp1-/- hTDP1 cells, no CPT, ATP luminescence, 48 h; activity change, negative = growth inhibition: at 46.2 µM (top of the series) unless noted
# In short: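 Seeded 400 DT40-hTDP1 cells/well (vehicle DMSO, no 20 nM CPT); pinned compounds; ≥48 hr at 37 °C; CellTiter-Glo luminescence as viability measure.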
# % is set by controls: 0 for no effect and ±100 for the full control effect; potency is the fitted concentration of half-maximal effect; tags give direction and shape of the fitted curve.
Structure (SMILES),Potency,"activity change, negative = growth inhibition"
CCOc1ccc(CN2CCN(CCCc3ccccc3)C(CCO)C2)cc1 (stereo unspecified),active: 20.6 µM,
CC(C)OCCCNC(=O)CCCn1c(SCC(=O)c2ccc(F)cc2)nc2c(sc3ccccc32)c1=O,,inactive: -2.13%
Cc1cc(=O)n2nc(N3CCCC(C(=O)NCc4cccc(Br)c4)C3)sc2n1 (stereo unspecified),,inactive: 5.63%
Fc1ccccc1NC(=S)NCc1ccccc1,"inconclusive: 25.9 µM [inhibitor, single point]",
O=Nc1c(-c2c(O)[nH]c3cc(Br)ccc23)[nH]c2ccccc12,active: 14.6 µM,
COc1ccc(CCNC(=O)c2nnc(Cc3ccc(Cl)cc3)o2)cc1OC,"inconclusive: 29.1 µM [inhibitor, single point] and inconclusive: 23.1 µM [inhibitor, single point]",
COc1cccc(NC(=O)CCCn2nc(C)c3c(C)n(-c4ccccc4)nc3c2=O)c1,,inactive: 17.1%
COCCNC(=O)c1cc2c(c(-c3cccc(C#Cc4ccc(OC)c(OC)c4)c3)n1)[C@@H](CCO)N(S(=O)C(C)(C)C)C2 (stereo partly specified),"inconclusive: 29.1 µM [inhibitor, single point]",
COc1ccc(NC(=O)c2sc3nc(C)cc(C)c3c2N)cc1,,inactive: 7.38%
Cc1ccc(N(C(=O)CS(=O)CC(=O)Nc2ccc(F)cc2)C(C)C(=O)NC(C)(C)C)cc1 (stereo unspecified),,inactive: -21.8%
COc1ccc(-c2oc3ccc(-c4ccc5c(c4)OCO5)cc3c2-c2ccc(OC)nc2)cc1,"inconclusive: 14.6 µM [inhibitor, partial curve]",
CCN(CC)CCCN1CC(=O)N2[C@@H](Cc3c([nH]c4ccccc34)C2(C)C)C1=O,,inactive: 19.8%
Cc1nnc(SCc2cc(=O)[nH]c(/N=C(\N)Nc3ccccc3)n2)s1,active: 20.6 µM,
C[C@H](NC(=O)c1nc[nH]c1C(=O)NC1CCN(C(=O)OC(C)(C)C)CC1)C(=O)OCc1ccccc1,"inconclusive: 9.2 µM [inhibitor, partial curve]",
CNC(=S)NNC(=O)CCn1nc(C)c(Br)c1C,,inconclusive: -34.3% [inhibitor]
CN1CCN(CCC(=O)Nc2ccc(C3CCCC3)cc2)CC1,"inconclusive: 29.1 µM [inhibitor, single point]",
COc1ccc(/C=C/C(=O)OCC(=O)c2c(N)n(C)c(=O)n(C)c2=O)c(OC)c1,,inactive: -41.6%
COc1ccc(C)cc1S(=O)(=O)N1CCOCC1,"inconclusive: 29.1 µM [inhibitor, single point]",
Cc1ccc(OCC(=O)NCCNC(=O)c2ccc(C)nc2)cc1,"inconclusive: 0.164 µM [inhibitor, full curve]",
Cc1nonc1NC(=O)CSc1nnnn1-c1ccccc1,,inactive: -10.3%
O=C(Nc1ccc(S(=O)(=O)NC2=NCCCCC2)cc1)c1ccc([N+](=O)[O-])s1,active: 10.3 µM,
C[C@H](CO)N1C[C@H](C)[C@H](CN(C)S(=O)(=O)c2ccc(F)cc2)Oc2ncc(Br)cc2C1=O,"inconclusive: 0.731 µM [inhibitor, full curve, poor fit]",
O=C(Nc1ccccc1C(=O)Nc1ccccc1C(=O)NCc1ccco1)c1ccco1,"inconclusive: 16.4 µM [inhibitor, partial curve]",
COc1ccc(C(=O)N2CCC(C(N)=O)CC2)cc1S(=O)(=O)N1CCCC1,,inactive: 4.86%

Structure (SMILES),Potency,"activity change, negative = growth inhibition"
CCOc1cc(/C=C2\SC(=N)N(c3nccs3)C2=O)ccc1OCCN1CCOCC1,active: 20.6 µM,
CC(=O)c1c(C)oc2ccc(N(C(=O)c3ccncc3)S(=O)(=O)c3ccccc3)cc12,"inconclusive: 23.1 µM [inhibitor, partial curve, poor fit]",
Cc1ccc(NS(=O)(=O)c2ccc3[nH]c4c(c3c2)CCCCCC4)cc1Cl,"inconclusive: 14.6 µM [inhibitor, partial curve, poor fit]",
CCS(=O)(=O)N(C)[C@@H]1c2cc(C#N)ccc2OC(C)(C)[C@H]1O,inactive,
COc1cccc(N2C(=O)Nc3ccc(Br)cc3C2(O)C(=O)NCCN(C)C)c1 (stereo unspecified),,inactive: 20.2%
CCOC(=O)c1sc(NC(=O)c2cc(CC)on2)c(C(=O)OCC)c1C,,inactive: -1.01%
COc1ccc(Cc2nnc(SCC(=O)c3ccccc3)o2)cc1,"inconclusive: 29.1 µM [inhibitor, single point]",
COCc1nnc(NC(=O)C23CC4CC(CC(C4)C2)C3)s1,"inconclusive: 25.9 µM [inhibitor, single point]",
CCCOC(=O)c1ccc(NC(=O)Cc2csc(C)n2)cc1,,inconclusive: -32.1% [inhibitor]
Cc1cc2c(cc1S(=O)(=O)N1CCN(c3ccc(Cl)cc3)CC1)OCCN2C,"inconclusive: 29.1 µM [inhibitor, single point]",
CCOc1cc(N2CCOCC2)c(OCC)cc1NC(=O)COC(=O)c1cc2ccccc2cc1O,"inconclusive: 11.6 µM [inhibitor, partial curve]",
CS(=O)(=O)N1CC(C(=O)NC2CCCC2)Oc2ccc(Cl)cc21 (stereo unspecified),"inconclusive: 14.6 µM [inhibitor, single point]",
CCCCC(=O)NNC(=S)NC(=O)c1cccc([N+](=O)[O-])c1,"inconclusive: 29.1 µM [inhibitor, single point]",
COc1cc(CNCCSc2nnnn2C)cc(Br)c1OCc1ccccc1,"inconclusive: 29.1 µM [inhibitor, single point]",
CCCCN(C)C1=Nc2cccc3cccc1c23,"inconclusive: 14.6 µM [inhibitor, partial curve, poor fit]",
CCOC(=O)C(NC(=O)c1cccc(Cl)c1)(OCc1ccccc1)C(F)(F)F (stereo unspecified),"inconclusive: 14.6 µM [inhibitor, partial curve]",
Clc1ccc(N/N=C/c2ccncc2)cc1Cl,"inconclusive: 25.9 µM [inhibitor, partial curve, poor fit]",
Cc1ccsc1C(=O)NCC(c1cccs1)N1CCOCC1 (stereo unspecified),"inconclusive: 23.1 µM [inhibitor, partial curve]",
CC(C)CNC(=O)COC(=O)c1c2c(nc3ccccc13)/C(=C\c1cccs1)CC2,active: 20.6 µM,
CCOC(=O)c1cc2c(c(CCO)n1)[C@H](CCO)N(S(=O)C(C)(C)C)C2 (stereo partly specified),,inactive: 9.86%
Cc1[nH]c(C)c(S(=O)(=O)N2CCc3ccccc32)c1C(=O)N1CCCCC1,,inactive: 1.7%
Cc1ccc(CNC(=O)N2CCN(S(=O)(=O)c3ccccc3)CC2)cc1,,inactive: -7.51%
C/C(=N\Nc1ccc(F)cc1F)c1ccc(N2CCOCC2)cc1,"inconclusive: 29.1 µM [inhibitor, single point]",
CCC(=O)N1CCc2cc(Br)cc(S(=O)(=O)NCc3ccc(Cl)cc3)c21,"inconclusive: 20.6 µM [inhibitor, single point]",

Structure (SMILES),Potency,"activity change, negative = growth inhibition"
O=C1OCCC1Sc1ncnc2sc3c(c12)CCC3 (stereo unspecified),,inactive: -9.81%
Cc1ccc(/C=N/n2c(C3CCCCC3)n[nH]c2=S)cc1,"inconclusive: 10.3 µM [inhibitor, partial curve, poor fit]",
COc1ccccc1Sc1nc(-c2ccccc2)ncc1OC,active: 20.6 µM,
Cc1cccc(N2CCN(C(=O)CN(C)S(=O)(=O)c3ccc4c(c3)CCC(=O)N4)CC2)c1C,"inconclusive: 29.1 µM [inhibitor, single point]",
CCC(=O)N1CCN(c2ccc(Cl)cc2NC(=O)Cc2ccccc2)CC1,"inconclusive: 16.4 µM [inhibitor, partial curve]",
Cc1cccc(NC(=S)N=Nc2c(O)[nH]c3ccccc23)c1,active: 4.61 µM,
CSc1nc2sc3c(c2c(=O)n1-c1ccccc1C)CCCC3,active: 16.4 µM,
Cc1cccc(C)c1NC(=S)N=Nc1c(O)n(C)c2ccc(S(=O)(=O)N3CCOCC3)cc12,active: 4.11 µM,
COc1ccc(-c2cc(NC=O)c3ncc(-c4cccc(C(=O)N(C)C)c4)n3c2)cn1,active: 16.4 µM,
Cc1nc(N2CCCC2)c2c(C(=O)N3CCN(c4cccc(Cl)c4)CC3)c(C)oc2n1,"inconclusive: 23.1 µM [inhibitor, single point]",
O=C(NCc1cccc(C(F)(F)F)c1)C1CC(c2c(Cl)cccc2Cl)=NO1 (stereo unspecified),active: 16.4 µM,
COc1cccc(C(=O)NC2(C(F)(F)F)N=C3SCCN3C2=O)c1 (stereo unspecified),,inactive: -7.64%
CC1(C)CC(Cc2ccc(Cl)nc2)N(C(=O)OC(C)(C)C)C1 (stereo unspecified),"inconclusive: 29.1 µM [inhibitor, single point]",
COCC(=O)N(C)[C@H]1C[C@H]2c3[nH]c4ccccc4c3CCN2C(=O)[C@H]1[C@H](C)O,"inconclusive: 29.1 µM [inhibitor, single point]",
C=Cc1ccc(CSc2nc(-c3ccccc3Cl)nc3c2Cc2c(CO)cnc(C)c2O3)cc1,"inconclusive: 29.1 µM [inhibitor, single point]",
CC(=O)c1ccc(NC(=O)CSc2nc3[nH]c(=O)cc(O)c3s2)cc1,,inconclusive: -30.9% [inhibitor]
CC(CN1CCOCC1)OC(=O)C1COc2ccccc2O1 (stereo unspecified),,inactive: 12.6%
CN1CCC(=NNC(=O)C(=O)Nc2cccc(Br)c2)CC1,"inconclusive: 29.1 µM [inhibitor, single point]",
Cc1c(NC(=S)SCc2ccccc2)c(=O)n(-c2ccccc2)n1C,active: 23.1 µM,
O=C(NCCCN1CCCC1=O)Nc1ccc(Br)cc1Cl,,inactive: 0.741%
O=c1cnc2cnc(Nc3ccccc3)nc2n1C[C@H]1CCCO1,active: 9.2 µM,
COc1ccc(-c2nnn(CC(=O)c3ccccc3)n2)cc1OC,"inconclusive: 35.5 µM [inhibitor, single point]",
CC1(c2ccccc2)CC(C)(C)N2C(=O)Cc3cccc1c32 (stereo unspecified),"inconclusive: 29.1 µM [inhibitor, single point]",
